In PubChem BioAssay AID504706 (National Center for Advancing Translational Sciences (NCATS), 2011):
Screen size: about 320,000 compounds; about 200 (0.062%) were called active. Inconclusive means that the source gave no clear call. Such entries were picked first, then a sample of the others. Calls come from the whole dose curve; as a rule, active = well fitted activation curve with a large enough effect; inconclusive = small, poorly fitted or top-dose-only effect; inactive = no such curve, though single readings can be large or run the other way. No potency is given beside an inconclusive call; the fits are too rough.

Test: qHTS assay for re-activators of p53 using a Luc reporter; note: nearly all actives have a fitted effect of over 45% in size
Settings: H1299 p53-A138V BP100-luciferase reporter, luminescence, 24 h; series mostly up to 92.2 µM
Procedure, shortened: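 H1299 (p53-null), stable ts p53-A138V + BP100-Luc; 1000 cells/well, Opti-MEM/10% FBS; cpd 4 pt, 1:5; 24 h, 37 deg C, 5% CO2; detection reagent 10 min RT; luminescence.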
Potency is the fitted concentration of half-maximal effect; tags give direction and shape of the fitted curve.

Row | SMILES | Potency
1 | Cc1ccc(N=C2NC(=O)/C(=C/c3cccs3)S2)cc1C | inconclusive [activator, partial curve, poor fit]
2 | O=C(N/N=C/c1ccccn1)c1cccs1 | inconclusive [activator, partial curve, poor fit]
3 | O=S(=O)(c1ccc(Br)cc1)N1CCN(c2ccc3nnc(-c4ccccc4)n3n2)CC1 | inactive
4 | Cc1cc(C(=O)NC(=S)Nc2cccc(NC(=O)C(C)C)c2)ccc1[N+](=O)[O-] | inconclusive [activator, full curve, poor fit]
5 | COc1ccc(CC(=O)OCC(=O)Nc2ccc3c(c2)OCO3)cc1 | inconclusive [activator, single point]
6 | CCOC(=O)c1ccc(-c2ccc3c(c2)CCC3)nc1C | inconclusive [activator, full curve, poor fit]
7 | O=C(NC1=NCCS1)c1ccc(Br)s1 | inconclusive [activator, partial curve, poor fit]
8 | Cc1ccccc1C(=O)NNS(=O)(=O)c1cccc([N+](=O)[O-])c1 | inconclusive [activator, single point]
9 | CCCN1CCN(CCCNC(=O)Cn2nc(C)n3c(cc4cc(OC)ccc43)c2=O)CC1 | inactive
10 | O=[N+]([O-])c1ccc(Cl)c(/C=N/n2c(C3CCCCC3)n[nH]c2=S)c1 | inactive
11 | Cn1c(C(=O)c2ccccc2)nc2ccccc21 | inconclusive [activator, full curve, poor fit]
12 | c1ccc(-c2csc(N3CCSCC3)n2)cc1 | inconclusive [activator, partial curve, poor fit]
13 | CSc1nsc(SCC(=O)Nc2ccc3c(c2)OCCO3)n1 | inconclusive [activator, partial curve, poor fit]
14 | Cc1ccc(NC(=S)NC2CC3CCCC(C2)N3Cc2cccs2)cc1 (centres undefined) | inactive
15 | COc1ccc(CCNC(=O)c2cc(S(=O)(=O)N3CCCCC3)ccc2Cl)cc1 | inactive
16 | COc1cccc(-c2nc(-c3ccccc3)no2)c1 | inconclusive [activator, partial curve, poor fit]
17 | O=C(Nc1ccc(Br)c(C(F)(F)F)c1)c1ccccc1 | inactive
18 | CCOC(=O)c1c(NC(=O)CSc2nc3ccccc3o2)sc(C)c1C | inconclusive [activator, single point]
19 | Clc1ccc(/C=N/Nc2ncnc3ccccc23)cc1Cl | inconclusive [activator, partial curve, poor fit]
